{
  "source": "PubChem BioAssay AID504444",
  "about": "(National Center for Advancing Translational Sciences (NCATS), 2011)",
  "note": "Out of some 360,000 compounds screened, about 7,500 (2.1%) were called active. Inconclusive results (about 20%) are left out. The call rests on the fitted dose curve; in most records, active means well fitted inhibition curve with a large enough effect; inconclusive means small, poorly fitted or top-dose-only effect, or effect the other way; inactive means flat fitted curve, though single readings scatter. The list shows a part of the results, in another mix than the full data. On the % scale 0 is the no-effect control and ±100 the full control effect; potency means the concentration at half of the fitted maximal effect.",
  "data": [
    {"assay": "Nrf2 qHTS screen for inhibitors; further: nearly all actives have a fitted effect of over 60% in size", "details": "A549 ARE-Fluc reporter, luciferase luminescence, 18-24 h; series mostly up to 46 µM; activity change, negative = inhibition: at the top concentration", "method_in_brief": "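Quantitative HTS in A549 cells stably bearing an antioxidant response element-firefly luciferase construct. Inhibition of Nrf2-driven transcription was scored by luminescence after 18-24 h of compound exposure at 37 °C.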", "values": [
      {"smiles": "CCC(CC)C(=O)Nc1c(C(=O)N2CCN(c3ccccc3)CC2)oc2ccccc12", "activity change, negative = inhibition": "inactive: 1.55%"},
      {"smiles": "CCOC(=O)/C(=N\\Nc1ccc(Br)cc1)N1CC(C)OC(C)C1", "note": "(stereo unspecified)", "activity change, negative = inhibition": "inactive: -11.7%"},
      {"smiles": "C[C@H]1CCC[C@@]2(O[C@@H](CCO)C[C@H](O)[C@H]2O)O1", "activity change, negative = inhibition": "inactive: 7.89%"},
      {"smiles": "O=C(Cn1cccc1C(=O)c1ccccc1)NCc1ccc(F)cc1", "activity change, negative = inhibition": "inactive: 12.2%"},
      {"smiles": "Cc1occc1C(=O)N(C)Cc1nc(-c2ccc(Cl)cc2)no1", "Potency": "active: 20.6 µM"},
      {"smiles": "Cc1ccc(NC(=O)c2ccc(CNS(=O)(=O)c3ccc4c(c3)C(C)(C)C(=O)N4C)cc2)cc1C", "Potency": "active: 18.4 µM"},
      {"smiles": "O=C(Nc1c(-c2ccccc2)nc2ccccn12)c1ccccc1F", "activity change, negative = inhibition": "inactive: 2.83%"},
      {"smiles": "CCOC(=O)C1=C(C)NC(C)=C(C(=O)OCC)C1C(=O)OCC(=O)N1CCCCC1CC", "note": "(stereo unspecified)", "activity change, negative = inhibition": "inactive: -1.98%"},
      {"smiles": "CCOc1ccc(CCNC(=O)CCCn2c(=O)c3cccn3c3cccnc32)cc1OCC", "activity change, negative = inhibition": "inactive: -0.986%"},
      {"smiles": "C#C[C@]1(O)CC[C@H]2[C@@H]3CCC4=CC(=O)CC[C@@H]4[C@H]3CC[C@@]21CC", "activity change, negative = inhibition": "inactive: -10.9%"},
      {"smiles": "N#C/C(=C(/O)c1ccco1)c1nc2ccccc2s1", "activity change, negative = inhibition": "inactive: 1.4%"},
      {"smiles": "CCCCNC(=O)C(Cc1ccccc1)NS(=O)(=O)c1ccc2c(c1)c(=O)n(C)c(=O)n2C", "note": "(stereo unspecified)", "activity change, negative = inhibition": "inactive: 6.94%"},
      {"smiles": "CNC(=O)C1CCC(Cn2c(=O)c3sccc3n(CC(=O)Nc3ccc(C)c(C)c3)c2=O)CC1", "note": "(stereo unspecified)", "Potency": "active: 23.1 µM"},
      {"smiles": "C[C@@H]1CC=C[C@H]2[C@H]1C(=O)N(Cc1ccccc1)[C@H]2c1ccc(-c2ccc(F)cc2)cc1F", "activity change, negative = inhibition": "inactive: -13.1%"},
      {"smiles": "Cc1ncc(CO)c(/C=N/Nc2ccc(C(F)(F)F)cn2)c1O", "Potency": "active: 10.3 µM"},
      {"smiles": "NNC(=O)c1oc2nc(-c3ccc(Cl)cc3)cc(-c3ccccc3)c2c1N", "Potency": "active: 10.3 µM"},
      {"smiles": "CCCN(CCC)CCCNC(=O)c1cc2c(-c3ccc(OC)c(OC)c3)nn(C)c2s1", "activity change, negative = inhibition": "inactive: 16.1%"},
      {"smiles": "CC(C)Nc1nc(C#N)nc(NC(C)C)n1", "activity change, negative = inhibition": "inactive: -23.8%"},
      {"smiles": "CC(N=C(NC#N)Nc1ccncc1)C(C)(C)C", "note": "(stereo unspecified)", "activity change, negative = inhibition": "inactive: -3.31%"},
      {"smiles": "COc1ccc(NC(=O)CCCN2C(=O)C(c3ccccc3)Oc3cccnc32)c(OC)c1", "note": "(stereo unspecified)", "activity change, negative = inhibition": "inactive: -15.2%"},
      {"smiles": "O=C(Cc1cccs1)N/N=C/C=C/c1ccccc1[N+](=O)[O-]", "activity change, negative = inhibition": "inactive: 2.41%"},
      {"smiles": "CN1C(=O)Cc2cc(S(=O)(=O)NCCc3ccc(Cl)cc3)ccc21", "activity change, negative = inhibition": "inactive: 1.76%"},
      {"smiles": "Cc1ccc(N2CCN(S(=O)(=O)c3ccc(-n4cnnn4)cc3)CC2)c(C)c1", "activity change, negative = inhibition": "inactive: -2.97%"},
      {"smiles": "O=C(C1=C[C@@H](c2ccc(C(F)(F)F)cc2)C[C@@H](OCc2ccc(CO)cc2)O1)N1CCN(Cc2ccccc2)CC1", "activity change, negative = inhibition": "inactive: -26.6%"},
      {"smiles": "C/C(Cl)=C/Cn1c(N2CCCC2)nc2c1c(=O)n(C)c(=O)n2C", "activity change, negative = inhibition": "inactive: -16.7%"},
      {"smiles": "CC1CCCN(CCCNC(=O)c2cc3c(Cl)nc4ccccc4c3s2)C1", "note": "(stereo unspecified)", "activity change, negative = inhibition": "inactive: 8.39%"}
    ]}
  ]
}
